Source: the supplement of paper PMC9174493
Some of the results follow. Single values of this set are uncertain. Values with irradiation are relative to irradiated vehicle.

What follows are compounds tested on A549-Dual (assay: ISRE reporter (Lucia luciferase) activity, viability-corrected, relative to vehicle (fold change vs vehicle); higher = more activation of STING-IRF / NF-kB immune response reporter). Conditions: 10 µM; irradiation: none.
`CC1=C(CC(=O)O)c2cc(F)ccc2/C1=C\c1ccc(S(C)=O)cc1` (stereo not given) [Sulindac] gave an ISRE reporter of 1.08. Compound `C1N2CN3CN1CN(C2)C3` [Methenamine] has an ISRE reporter of 0.776. Work on `COc1ccc2cc(C(C)C(=O)[O-])ccc2c1.[Na+]` (stereo not given) [Naproxen Sodium] yielded an ISRE reporter of 0.873. `Cc1ccc(Cl)c(Nc2ccccc2C(=O)[O][Na])c1Cl` [Meclofenamate Sodium] was tested, and the ISRE reporter was 0.903. Work on `O=C(OCCOCCO)c1ccccc1Nc1cccc(C(F)(F)F)c1` [Etofenamate] yielded an ISRE reporter of 1.05. Compound `O=C([O-])c1cc(N=Nc2ccc(O)c(C(=O)[O-])c2)ccc1O.[Na+].[Na+]` [Olsalazine Sodium] has an ISRE reporter of 0.583. Work on `CC(=O)Nc1ccc(OC(=O)c2ccccc2OC(C)=O)cc1` [Benorylate] yielded an ISRE reporter of 0.773. `CO/N=C(\C(=O)NC1C(=O)N2C(C(=O)OCOC(=O)C(C)(C)C)=C(C)CSC12)c1csc(N)n1.Cl` (stereo not given) [Cefetamet pivoxil hydrochloride] gave an ISRE reporter of 0.678. `CCC(C(=O)O)c1ccc(N2Cc3ccccc3C2=O)cc1` (stereo not given) [Indobufen] gave an ISRE reporter of 0.892. `CS(=O)(=O)O.Cc1ccc(NC(=O)c2ccc(CN3CCN(C)CC3)cc2)cc1Nc1nccc(-c2cccnc2)n1` [Imatinib Mesylate (STI571)] was tested, and the ISRE reporter was 1.24. For `CC(C(=O)O)c1ccc(C(=O)c2ccccc2)s1` (stereo not given) [Tiaprofenic acid], the ISRE reporter was 0.997. Work on `CCc1nc(N)nc(N)c1-c1ccc(Cl)cc1` [Pyrimethamine] yielded an ISRE reporter of 0.828. `COc1cc(C2c3cc4c(cc3C(OC3OC5COC(C)OC5C(O)C3O)C3COC(=O)C23)OCO4)cc(OC)c1O` (stereo not given) [Etoposide] gave an ISRE reporter of 2.7. For `CN(C)CCC(c1ccc(Br)cc1)c1ccccn1.O=C(O)/C=C\C(=O)O` (stereo not given) [Brompheniramine hydrogen maleate], the ISRE reporter was 1.16. For `CC12CCC3c4ccc(O)cc4CC(CCCCCCCCCS(=O)CCCC(F)(F)C(F)(F)F)C3C1CCC2O` (stereo not given) [Fulvestrant], the ISRE reporter was 1.66. Work on `O=C([O-])CC(O)(CC(=O)[O-])C(=O)[O-].O=C([O-])CC(O)(CC(=O)[O-])C(=O)[O-].[BiH6+3].[K+].[K+].[K+]` [Gastrodenol] yielded an ISRE reporter of 0.94. `CCCCC1(COC(=O)CCC(=O)O)C(=O)N(c2ccccc2)N(c2ccccc2)C1=O` [Suxibuzone] showed an ISRE reporter of 0.838. `O=C(O)Cc1ccccc1Nc1c(Cl)cccc1Cl.OCCN1CCCC1` [Diclofenac Epolamine] gave an ISRE reporter of 0.559. `Cl.N=C1CCCN1Cc1[nH]c(=O)[nH]c(=O)c1Cl.O=c1[nH]c(=O)n(C2CC(O)C(CO)O2)cc1C(F)(F)F.O=c1[nH]c(=O)n(C2CC(O)C(CO)O2)cc1C(F)(F)F` (stereo not given) was tested, and the ISRE reporter was 2.27. `NC(CO)(CO)CO` [Trometamol] gave an ISRE reporter of 0.65. Compound `COc1ccc2c(c1)c(CC(=O)O)c(C)n2C(=O)c1ccc(Cl)cc1` [Indomethacin] has an ISRE reporter of 0.901. `Cn1cnc([N+](=O)[O-])c1Sc1ncnc2nc[nH]c12` [Azathioprine] was tested, and the ISRE reporter was 0.659. With `NCCNc1ccc(NCCN)c2c1C(=O)c1ccncc1C2=O.O=C(O)/C=C\C(=O)O.O=C(O)/C=C\C(=O)O` [Pixantrone Maleate] the ISRE reporter was 3.65. For `CC(=O)Oc1cccc2c1C(=O)c1c(OC(C)=O)cc(C(=O)O)cc1C2=O` [Diacerein], the ISRE reporter was 0.865. `CNCC(O)c1ccc(O)c(O)c1.O=C(O)C(O)C(O)C(=O)O` (stereo not given) [Epinephrine bitartrate] gave an ISRE reporter of 1.11. Work on `CC1(C(=O)O)CCC2(C)CCC3(C)C(=CC(=O)C4C5(C)CCC(OC6OC(C(=O)O)C(O)C(O)C6OC6OC(C(=O)O)C(O)C(O)C6O)C(C)(C)C5CCC43C)C2C1.N.N` (stereo not given) [Diammonium Glycyrrhizinate] yielded an ISRE reporter of 0.861. In the case of `CCCCCCCCCCCCCCCCCCOP(=O)([O-])OC1CC[N+](C)(C)CC1` [Perifosine (KRX-0401)], the ISRE reporter is reported as 0.706. With `COc1c2occc2cc2ccc(=O)oc12` [Methoxsalen] the ISRE reporter was 0.847. For `O=C(O)CCCN1CCC(OC(c2ccc(Cl)cc2)c2ccccn2)CC1` (stereo not given) [Bepotastine], the ISRE reporter was 0.853. Compound `CN(C)CCCOc1nn(Cc2ccccc2)c2ccccc12.Cl` [Benzydamine HCl] has an ISRE reporter of 1.25. `CC(C(=O)O)c1ccc2c(c1)[nH]c1ccc(Cl)cc12` (stereo not given) [Carprofen] showed an ISRE reporter of 0.891. With `COc1cc2nccc(Oc3ccc(NC(=O)Nc4cc(C)on4)c(Cl)c3)c2cc1OC` [Tivozanib (AV-951)] the ISRE reporter was 0.495. For `Oc1ccc(/C=C/c2cc(O)cc(O)c2)cc1` [Resveratrol], the ISRE reporter was 2.63. Work on `Nc1cccc2c1C(=O)N(C1CCC(=O)NC1=O)C2=O` (stereo not given) [Pomalidomide] yielded an ISRE reporter of 0.773. Work on `COc1cc(C2c3cc4c(cc3C(OC3OC5COC(c6cccs6)OC5C(O)C3O)C3COC(=O)C23)OCO4)cc(OC)c1O` (stereo not given) [Teniposide] yielded an ISRE reporter of 1.86. With `S=c1nc[nH]c2nc[nH]c12` [Mercaptopurine (6-MP)] the ISRE reporter was 0.743. In the case of `CC(C(=O)O)c1ccc2c(c1)CC(=O)c1ccccc1S2` (stereo not given) [Zaltoprofen], the ISRE reporter is reported as 0.778. Compound `Cc1nc(Nc2ncc(C(=O)Nc3c(C)cccc3Cl)s2)cc(N2CCN(CCO)CC2)n1.Cl` [Dasatinib hydrochloride] has an ISRE reporter of 0.404. `O=c1[nH]cc(F)c(=O)[nH]1` [Fluorouracil (5-Fluoracil, 5-FU)] was tested, and the ISRE reporter was 1.86. In the case of `COc1cc(/C=C/C(=O)/C=C(O)/C=C/c2ccc(O)c(OC)c2)ccc1O` [Curcumin], the ISRE reporter is reported as 0.937.
